Results published in the RNAGym collection of RNA variant scans (doi:10.1093/nar/gkz1192).
The source gives no read counts; variants with many changes may rest on few reads.

B1: CPEB3 Ribozyme (parent)
chain: UAACAGGGGGCCACAGCAGAAGCGUUCACGUCGCAGCCCCUGUCAGAUUCUGGUGAAUCUGCGAAUUCUGCUGUAUAUCUC

Variants of: B1
Test: self-cleavage, relative activity (ratio to wild type); higher = more cleavage; in vitro, sequencing
Method in brief: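 Libraries of CPEB3 self-cleaving ribozyme mutants came from rounds of error-prone PCR and carried barcodes, which DNA sequencing matched to variants. In vitro transcription used T7 RNA polymerase at 37°C for 5 hours, with a further 15 min in DNase I before EDTA stopped the reaction; the ribozymes cleaved during both steps. The RNA was reverse transcribed with template switching and sequenced on Illumina. Relative activity is the cleaved/total read fraction of a variant divided by that of the unmutated ribozyme, averaged over three batches with at least 5 reads.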

Variant | self-cleavage
UAGCAGGGGGCCACAGCAGAAGCGUUCACGUCGCAGCCCCUGUCAGAUUCUGGUGAAUCUGCGAAUGCUGCUGUGUAUCUC | 0.35
UAUCGGGGGGACACAGCUGAAGCGUUCACGUCGCAGCGCCUGUCAGAUUCUGGUGAAUCUGCGAAUUCUGCUGUAUAUCUC | 0.1
UAGCAGGGGGCCACAGCAGAAGCGUUCACGUCGCAGCCCCUGUCAGAUUCCGGCGAAUCUGCGAAUUCUGCUGUAUAUCCC | 1
UAGCAGGGGGCCACAGCAGAAGCGUUCACGUCGCAGCCCCUGUCAGAUUCUGGUGAAUCUGCGAAAUCUGCUGUAUGUCAC | 0.78
UAGCAGGGGGCCACAGCAGAAGCGUUCACGUCGCAGCCCCUGUCAGAUUCCGGUGAGUCUGCGAAUUCUGCUGUAUAUCUC | 1.01
UAGCAGGGGGCCACAGCAGAAGCGUUCACGUCGCAGCCCCUGUCAGAUUCUGGUGAAUCUGCGAACACUGCCGUGUACCUC | 0.27
UAGCAGGGGGCCACAGCAGAAGCGUUCACGUCGCAGCCCCUGUCAGAUUCUGGUGAAUCAGCGAAUUCCGCUGUAUAUCUC | 0.3
UAGCAGGGGGCCACAGCAGAAGCGUUCACGUCGCAGCCCCUGUCAGAUUCUGGAGGAUCUGCGAAUACUGCUGUAUAUCUC | 0.23
UAGCAGGGGGCCACAGCAGAAGCGUUCACGUCGCAGCCCCUGUCAGAUUCUGGUGAAUCUGCGAACUCUGUUGUAUUUCUC | 0.12
UAUCGGGGGGCCACGGCAGAAGCGUUCACGUCGCAGCCCCUGUCAGAUUCUGGUGAAUCUGCGAACUCUGCUGUAUAUCUC | 0.41
UAGCAGGGGGCCACAGCAGAAGCGUUCACGUCGCAGCCCCUGUCAGAUUCAGGUGGAACUGCGAAUUCUGCUGUAUAUCUC | 0.27
UAGCAGGGGGCCACAGCAGAAGCGUUCACGUCGCAGCCCCUGUCAGAUUCUGGUGAAUCUGCGAAUCCUGCCGUGUAUCUC | 0.35
UAGCAGGGGGCCACAGCAGAAGCGUUCACGUCGCAGCCCCUGUCAGAUUCUGGUGAAUCCGCGAAUUCUGCUGUUUAUCUC | 0.45
UAUCGGGGGGCCACAGCAGAAGCGUUCACGUCGCAGCCCCUGUCAGGUCCUGGUGAAUCUGCGAAUUCUGCUGUAUAUCUC | 0.42
UAGCAGGGGGCCACAGCAGAAGCGUUCACGUCGCAGCCCCUGUCAGAUUCUGGGGAAUCUGCGAGUUCUGCUGUAUAUCUC | 0.38
UAGCAGGGGGCCACAGCAGAAGCGUUCACGUCGCAGCCCCUGUCAGAUUCUGGAGAAUCGGCGAAUUCUGCUGUAUAUCUC | 0.46
UAGCAGGGGGCCACAGCAGAAGCGUUCACGUCGCAGCCCCUGUCAGAUUCUGGCGAAUCUGCAAAUUCUGCUGUAUAUCUC | 1

Variant | self-cleavage
UAGCAGGGGGCCACAGCAGAAGCGUUCACGUCGCAGCCCCUGUCAGAUCCUGGUGAAUCCGCGAAUCCUGCUGUACAUCUC | 0.08
UAGCAGGGGGCCACAGCAGAAGCGUUCACGUCGCAGCCCCUGUCAGAUUCUGGUGAAUCCGCAAAUUCUGCUGUAUAUCUC | 0.5
UAGCAGGGGGCCACAGCAGAAGCGUUCACGUCGCAGCCCCUGUCAGAUUCUGGUGAAUCUGCGAAUUCAGCCGUAUAUCUC | 0.51
UAUCGGGGGGCCUCAGCAGAGGGGUUCGCGUCGCAGCCCCUGUCAGAUUCUGGUGAAUCUGCGAAUUCUGCUGUAUAUCUC | 0.61
UAGCAGGGGGCCACAGCAGAAGCGUUCACGUCGCAGCCCCUGUCAGAUUCUGGUGAACCUGCGAAUUCUGCUUUAUACCUC | 1.18
UAGCAGGGGGCCACAGCAGAAGCGUUCACGUCGCAGCCCCUGUCAGAUUCUGGUGAAUCUGCGAAGUCUGCGGUAUAUCUC | 0.34
UAGCAGGGGGCCACAGCAGAAGCGUUCACGUCGCAGCCCCUGUCAGAUUCCGGUGAAUCUGCGAAUCCUGCUGUAUAUCUC | 0.46
UAGCAGGGGGCCACAGCAGAAGCGUUCACGUCGCAGCCCCUGUCAGAUUCAGGUGAAUCUGCGAAUUCUGCUGUACAUCUC | 1.17
UAGCAGGGGGCCACAGCAGAAGCGUUCACGUCGCAGCCCCUGUCAGAUUCCGGUGUAUCUGCGAAUUCUGCUGUAUACCUC | 0.73
UAGCAGGGGGCCACAGCAGAAGCGUUCACGUCGCAGCCCCUGUCAGAUUCUGGUGAAUCUGCGAAUUCUGCUGCACAUCUC | 1.18
UAGCAGGGGGCCACAGCAGAAGCGUUCACGUCGCAGCCCCUGUCAGAUUCUGGUGAAUCUGCGAAUUCUGCCGUCUAACUC | 0.83
UAUCGGGGGGCCACAGCAGAAGCGUUCACGUCGCGGCCCCUGUCAGACUCUGGUGAAUCUGCGAAUUCUGCUGUAUAUCUC | 1.11
UAGCAGGGGGCCACAGCAGAAGCGUUCACGUCGCAGCCCCUGUCAGAUUCAGGCGAAUCUGCGAAUUCUGCUGUAUAUCUC | 1
UAGCAGGGGGCCACAGCAGAAGCGUUCACGUCGCAGCCCCUGUCAGAUUCCGGUGAAUCUGCGAAGUCUGCUGUAUAUCUC | 0.61
UAGCAGGGGGCCACAGCAGAAGCGUUCACGUCGCAGCCCCUGUCAGAUUCCGGAGAAUCUGCGAAUUGUGCUGUUUAUCUC | 1.18
UAGCAGGGGGCCACAGCAGAAGCGUUCACGUCGCAGCCCCUGUCAGAUUCCGGAGAAUCUGCGAAUUCUGCUGUAUAUCUC | 0.91
UAGCAGGGGGCCACAGCAGAAGCGUUCACGUCGCAGCCCCUGUCAGAUUCUGGUGAAUCUGCGAAUACUGCUGUAUGUCUC | 0.49
